Laboratory results from publication PMC2518271.
No constants are given. Whether binding was seen depends on the method and setting. Binding seen in cells or lysates may run through a third protein. Some results given as binding are weak or reduced against the parent protein; the word gives no strength. Where a sequence is shown, tags or fusion partners need not be part of it.

The chains behind the UniProt entries cited, without tags or fusion partners.
UniProt P46821: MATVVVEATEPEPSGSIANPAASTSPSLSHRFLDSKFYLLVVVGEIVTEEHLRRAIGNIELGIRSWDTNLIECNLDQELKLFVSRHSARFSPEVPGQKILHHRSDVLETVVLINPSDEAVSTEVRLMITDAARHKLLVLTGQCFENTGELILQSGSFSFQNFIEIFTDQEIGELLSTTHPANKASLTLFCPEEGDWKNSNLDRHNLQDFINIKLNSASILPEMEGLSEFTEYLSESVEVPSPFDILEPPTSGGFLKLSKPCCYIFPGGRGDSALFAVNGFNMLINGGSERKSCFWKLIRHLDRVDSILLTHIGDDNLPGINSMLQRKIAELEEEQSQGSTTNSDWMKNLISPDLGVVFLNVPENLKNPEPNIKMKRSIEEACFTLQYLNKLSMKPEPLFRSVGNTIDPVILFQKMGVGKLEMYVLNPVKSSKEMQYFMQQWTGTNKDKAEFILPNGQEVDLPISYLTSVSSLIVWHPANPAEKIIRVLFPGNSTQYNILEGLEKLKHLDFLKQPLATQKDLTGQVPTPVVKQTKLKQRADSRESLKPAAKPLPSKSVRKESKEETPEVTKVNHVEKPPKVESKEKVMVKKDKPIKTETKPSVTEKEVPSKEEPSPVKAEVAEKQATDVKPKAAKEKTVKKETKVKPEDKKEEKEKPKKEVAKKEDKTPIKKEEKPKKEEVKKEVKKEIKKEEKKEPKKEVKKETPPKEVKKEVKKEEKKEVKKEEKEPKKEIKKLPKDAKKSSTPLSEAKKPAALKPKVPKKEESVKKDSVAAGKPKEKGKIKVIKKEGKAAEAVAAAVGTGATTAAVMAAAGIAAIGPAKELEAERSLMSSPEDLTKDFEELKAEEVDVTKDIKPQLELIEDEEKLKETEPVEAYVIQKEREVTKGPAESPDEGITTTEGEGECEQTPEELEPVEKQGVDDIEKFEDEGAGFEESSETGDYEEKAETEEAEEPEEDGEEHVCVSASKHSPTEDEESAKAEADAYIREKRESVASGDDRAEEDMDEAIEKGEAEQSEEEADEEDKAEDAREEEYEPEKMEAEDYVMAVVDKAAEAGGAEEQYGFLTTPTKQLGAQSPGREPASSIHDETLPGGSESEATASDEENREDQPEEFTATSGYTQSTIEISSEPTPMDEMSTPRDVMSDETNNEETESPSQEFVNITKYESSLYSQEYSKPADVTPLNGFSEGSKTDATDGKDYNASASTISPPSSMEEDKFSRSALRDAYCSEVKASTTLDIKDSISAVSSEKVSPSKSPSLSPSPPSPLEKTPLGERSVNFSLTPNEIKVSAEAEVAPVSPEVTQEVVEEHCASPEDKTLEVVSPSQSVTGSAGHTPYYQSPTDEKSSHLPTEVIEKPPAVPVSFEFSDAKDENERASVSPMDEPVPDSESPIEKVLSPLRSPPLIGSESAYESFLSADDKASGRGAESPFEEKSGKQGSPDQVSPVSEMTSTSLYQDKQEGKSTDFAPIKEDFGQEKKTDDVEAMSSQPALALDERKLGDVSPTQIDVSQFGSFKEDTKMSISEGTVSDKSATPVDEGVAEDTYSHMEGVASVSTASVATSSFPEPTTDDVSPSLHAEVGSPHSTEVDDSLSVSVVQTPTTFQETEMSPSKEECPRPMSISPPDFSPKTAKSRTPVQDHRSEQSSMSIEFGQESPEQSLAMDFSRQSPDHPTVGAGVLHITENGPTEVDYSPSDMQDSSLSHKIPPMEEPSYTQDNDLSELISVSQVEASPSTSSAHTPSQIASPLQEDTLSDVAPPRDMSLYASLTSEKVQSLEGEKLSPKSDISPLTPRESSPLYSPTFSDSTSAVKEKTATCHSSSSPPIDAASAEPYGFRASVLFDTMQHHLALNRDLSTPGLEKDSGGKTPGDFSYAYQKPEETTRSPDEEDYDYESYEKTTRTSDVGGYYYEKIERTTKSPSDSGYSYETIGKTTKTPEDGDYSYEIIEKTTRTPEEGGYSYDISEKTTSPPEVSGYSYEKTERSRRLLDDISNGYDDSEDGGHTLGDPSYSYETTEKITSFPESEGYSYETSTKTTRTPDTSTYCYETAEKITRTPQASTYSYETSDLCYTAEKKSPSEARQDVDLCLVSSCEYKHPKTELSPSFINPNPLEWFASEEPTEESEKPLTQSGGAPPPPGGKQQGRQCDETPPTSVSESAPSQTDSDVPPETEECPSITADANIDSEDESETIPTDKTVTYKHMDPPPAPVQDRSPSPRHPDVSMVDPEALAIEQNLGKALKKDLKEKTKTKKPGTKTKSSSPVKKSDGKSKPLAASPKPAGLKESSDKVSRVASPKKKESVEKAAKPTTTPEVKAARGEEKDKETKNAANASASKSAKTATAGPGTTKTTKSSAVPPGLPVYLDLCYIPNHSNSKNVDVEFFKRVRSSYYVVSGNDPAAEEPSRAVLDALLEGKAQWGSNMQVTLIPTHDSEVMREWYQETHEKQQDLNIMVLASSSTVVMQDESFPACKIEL

Legend:
[1] = target: T1, FLAG-tagged NORE1A N-terminal portion (amino acids 1–268) (UniProt Q8WWW0); assay: co-IP; HEK293 cells transfected with FLAG-tagged NORE1A constructs; lysates precipitated for FLAG, precipitate probed with antibody against C19ORF5 and MAP1B
T1 sequence: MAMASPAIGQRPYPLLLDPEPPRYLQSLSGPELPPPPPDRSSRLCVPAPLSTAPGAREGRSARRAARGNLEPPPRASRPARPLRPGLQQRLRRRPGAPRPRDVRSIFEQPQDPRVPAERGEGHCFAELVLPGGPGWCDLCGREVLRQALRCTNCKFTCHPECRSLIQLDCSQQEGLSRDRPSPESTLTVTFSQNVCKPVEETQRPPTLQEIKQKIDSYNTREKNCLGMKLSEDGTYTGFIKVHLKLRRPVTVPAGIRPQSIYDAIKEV

[2] = target: T2, FLAG-tagged full-length NORE1A (UniProt Q8WWW0); assay: as above
T2 sequence: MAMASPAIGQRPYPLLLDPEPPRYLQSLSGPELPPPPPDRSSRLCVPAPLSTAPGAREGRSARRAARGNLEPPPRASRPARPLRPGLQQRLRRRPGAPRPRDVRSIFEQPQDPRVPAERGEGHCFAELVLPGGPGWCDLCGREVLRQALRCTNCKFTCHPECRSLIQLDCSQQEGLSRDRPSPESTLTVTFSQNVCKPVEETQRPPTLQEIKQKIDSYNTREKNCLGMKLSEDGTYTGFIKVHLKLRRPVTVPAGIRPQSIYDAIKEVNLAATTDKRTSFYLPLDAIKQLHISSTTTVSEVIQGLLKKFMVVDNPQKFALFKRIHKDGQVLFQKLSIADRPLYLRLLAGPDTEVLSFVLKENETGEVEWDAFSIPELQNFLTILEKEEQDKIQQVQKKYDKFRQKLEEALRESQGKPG

[3] = target: T3, FLAG-tagged NORE1A effector domain (amino acids 191–363) (UniProt Q8WWW0); assay: as above
T3 sequence: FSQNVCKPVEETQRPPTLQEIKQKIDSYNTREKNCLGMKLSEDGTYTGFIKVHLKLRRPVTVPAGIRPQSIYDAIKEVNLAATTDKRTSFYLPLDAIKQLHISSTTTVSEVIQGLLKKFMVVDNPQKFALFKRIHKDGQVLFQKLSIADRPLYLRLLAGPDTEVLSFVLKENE

[4] = target: T4, FLAG-tagged NORE1A C-terminal portion (amino acids 250–416) (UniProt Q8WWW0); assay: as above
T4 sequence: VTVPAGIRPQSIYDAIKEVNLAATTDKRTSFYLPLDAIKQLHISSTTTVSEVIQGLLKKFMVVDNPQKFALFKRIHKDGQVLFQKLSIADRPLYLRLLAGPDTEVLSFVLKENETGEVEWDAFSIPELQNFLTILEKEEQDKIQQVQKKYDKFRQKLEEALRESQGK

[5] = target: T5, hrGFP-tagged wild type NORE1A (UniProt Q8WWW0); assay: co-IP; A549 cells infected with retrovirus coding for hrGFP-tagged NORE1A; cell extracts precipitated for NORE1A, precipitate probed with antibody against MAP1B
T5 sequence: T2 sequence

Substance: Microtubule-Associated Protein 1B (MAP1B), endogenous (from UniProt P46821 1-2468)
- binding [1]: no binding
- binding [2]: binds
- binding [3]: binds
- binding [4]: no binding
- binding [5]: binds
